Where two headings read alike, the source gives them in different places.
Legend:
Gli1 mRNA expression = conditions: SAG 30 nM; for reduction of Gli1 mRNA expression compared to SAG-treated cells: 10 μM
[1] = system: Gli reporter NIH3T3 cells; assay: Cytotoxicity assay (Hoechst 33342 nuclei count) in Gli reporter NIH3T3 cells; type: cell-based; conditions: 30 h
Procedure: These cells were stimulated with SAG, selected GANT61 analogs added in dose–response, and the effects on cell number determined using the nuclear stain Hoechst 33342 [70].
Cells were plated and treated with SAG (at its EC50 concentration), and compounds were added in dose–response as above. […] For Gli reporter NIH3T3 cells, Hoechst dye was added 24 h after treatment. Cells were incubated with the Hoechst dye for 45 min at 37 °C. Following incubation, cells were washed with (50 μL) PBS (phosphate-buffered saline), fixed with formalin (20 μL), and incubated in the dark at room temperature for 15 min. After fixing the cells, formalin was removed, and 50 μL of PBS added. High-content imaging was performed using a Cellinsight NXT system (Thermo Fisher) at an excitation wavelength of 386 nm. Data were analyzed using GraphPad Prism 9.

**Q.** `c1cc(CNc2ccc(N3CCCC3)cc2)ccn1` [BAS 07019774, pyridin-4-ylmethyl-(4-pyrrolidin-1-yl-phenyl)-amine] was tested. Which “reduction of Gli1 mRNA expression compared to SAG-treated cells” value (Gli1 mRNA expression; 48 h) did it give?
**A.** Its value is 4.9 fold.

**Q.** What about the “reduction of Gli1 mRNA expression compared to SAG-treated cells” value (Gli1 mRNA expression; 96 h) of the same molecule?
**A.** Its value is 2.2 fold.

**Q.** Which “cell count reduction, Gli reporter NIH3T3” value ([1]; 25 μM) does the source give for `CN(C)c1ccccc1CN1CCCN(Cc2ccccc2N(C)C)C1c1ccncc1` [GANT61] here?
**A.** Its value is 49.4%.

**Q.** What about the “cell count reduction, Gli reporter NIH3T3” value ([1]; 50 μM) of the same molecule?
**A.** Its value is 86.5%.

**Q.** Which “decrease of SAG-induced Gli1 mRNA expression” value (Gli1 mRNA expression; KAAD-cyc 40 nM (IC90), 48 h) does the source give for `CC1=C2C[C@H]3[C@@H](CC=C4CC(=O)CC[C@@]43C)[C@@H]2CC[C@]12O[C@@H]1C[C@H](C)CN(CCNC(=O)CCCCCNC(=O)CCc3ccccc3)[C@H]1[C@H]2C` [KAAD-cyc, KAAD-cyclopamine, reference compound] here?
**A.** The value was “six-fold decrease”.

**Q.** With `CNC1CCC(N(Cc2cccc(-c3ccncc3)c2)C(=O)c2sc3ccccc3c2Cl)CC1` (stereo not shown) [SAG, reference compound] as the molecule, how does the “increase of Gli1 mRNA expression versus untreated cells” value (Gli1 mRNA expression; 48 h) read?
**A.** Its value is 27 fold.

**Q.** What about the “increase of Gli1 mRNA expression versus untreated cells” value (Gli1 mRNA expression; 96 h) of the same molecule?
**A.** The value was 278 fold.

Source: publication PMC11243198, “Identification of Novel GANT61 Analogs with Activity in Hedgehog Functional Assays and GLI1-Dependent Cancer Cells” (Molecules, 2024)
